In PMC4336329 (PLoS ONE, 2015):
Hit rate of the full screen: of about 310,000 compounds, about 14,000 (4.5%) showed an effect of 50% or more. Effects have a minus sign here. The list shows a part of the results.

Each compound was assayed against human ether-à-go-go-related gene (hERG) potassium channel (human, UniProt Q12809) (assay: primary screen, population patch clamp on CHO cells stably expressing hERG).
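Further: peak tail current of the secondary pulse compared with the same well before compound.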

Sequence of human ether-à-go-go-related gene (hERG) potassium channel (Q12809 whole entry, looked up): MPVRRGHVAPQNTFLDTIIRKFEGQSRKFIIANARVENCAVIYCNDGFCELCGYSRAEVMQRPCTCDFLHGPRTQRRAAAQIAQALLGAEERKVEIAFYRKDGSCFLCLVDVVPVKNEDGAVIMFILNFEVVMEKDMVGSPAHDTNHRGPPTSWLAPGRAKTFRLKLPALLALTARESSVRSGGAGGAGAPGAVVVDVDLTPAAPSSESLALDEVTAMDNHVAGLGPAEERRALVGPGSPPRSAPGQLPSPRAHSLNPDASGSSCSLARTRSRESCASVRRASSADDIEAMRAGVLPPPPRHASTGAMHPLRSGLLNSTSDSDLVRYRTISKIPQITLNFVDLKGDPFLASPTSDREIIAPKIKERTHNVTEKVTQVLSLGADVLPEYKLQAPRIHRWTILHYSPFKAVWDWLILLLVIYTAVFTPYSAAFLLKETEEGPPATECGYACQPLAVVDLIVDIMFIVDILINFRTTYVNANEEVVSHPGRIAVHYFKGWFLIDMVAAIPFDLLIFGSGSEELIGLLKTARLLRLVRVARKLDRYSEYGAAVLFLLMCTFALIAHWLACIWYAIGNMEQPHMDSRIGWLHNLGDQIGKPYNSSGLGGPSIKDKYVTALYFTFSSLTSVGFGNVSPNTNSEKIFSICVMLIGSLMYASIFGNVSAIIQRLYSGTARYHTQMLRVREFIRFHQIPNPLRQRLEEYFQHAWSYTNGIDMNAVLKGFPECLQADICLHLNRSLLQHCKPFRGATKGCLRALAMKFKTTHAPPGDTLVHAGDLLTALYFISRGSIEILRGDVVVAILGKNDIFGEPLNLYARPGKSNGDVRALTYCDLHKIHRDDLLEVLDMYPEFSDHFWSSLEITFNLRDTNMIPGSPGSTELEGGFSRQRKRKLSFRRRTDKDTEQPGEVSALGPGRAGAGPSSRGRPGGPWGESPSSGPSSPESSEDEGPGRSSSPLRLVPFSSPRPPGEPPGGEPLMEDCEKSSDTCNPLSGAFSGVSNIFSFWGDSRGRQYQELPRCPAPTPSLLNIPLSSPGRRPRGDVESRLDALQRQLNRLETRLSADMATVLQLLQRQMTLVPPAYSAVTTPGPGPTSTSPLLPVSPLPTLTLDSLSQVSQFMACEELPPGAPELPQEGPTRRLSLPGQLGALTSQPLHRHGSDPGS

| Compound | hERG current change (%, negative = inhibition) at 10uM |
| --- | --- |
| O=C(c1ccccc1)N(Cc1ccco1)C1CCS(=O)(=O)C1 (stereo not drawn) | 15.8% |
| COc1ccc(-c2cc(C(=O)NCc3ccc(Cl)cc3)no2)cc1OC | 6.78% |
| O=C(NCCc1c[nH]c2ccccc12)C(F)(F)C(F)F | -0.143% |
| COc1ccc(/C=C(\NC(=O)c2ccc([N+](=O)[O-])cc2)C(=O)N2CCOCC2)cc1 | -75% |
| O=C(Nc1ccc(S(=O)(=O)NCC2CCCO2)cc1)c1ccc(F)cc1 (stereo not drawn) | 17.5% |
| O=c1[nH]nc(-c2ccccc2)cc1-c1ccccc1 | -17.5% |
| CCOc1ccccc1C1c2[nH]c3ccccc3c2C[C@H]2C(=O)N(C3CC3)CC(=O)N12 (stereo partly drawn) | -27.8% |
| COC(=O)CCC(C)N1CCC(Oc2ccc(C(=O)N3CCCC3)cc2)CC1 (stereo not drawn) | -11% |
| CCCn1nc(C(=O)NCCN2CCOCC2)c2ccccc2c1=O | 9.71% |
| Cc1occc1C(=O)NCc1nc(-c2ccc(Cl)cc2)no1 | 11% |
| CC(C)O.CCCC1(CCC)NC(=O)N(CC(=O)N2CCN(C(=O)c3ccco3)CC2)C1=O | 5% |
| CN(C(=S)NC(=O)CCCOc1ccc(Cl)cc1Cl)c1ccccc1 | -2.14% |
| COC(=O)c1cc(NC(=O)CC2SC(=Nc3ccccc3)N(CCc3c[nH]c4ccccc34)C2=O)cc(C(=O)OC)c1 (stereo not drawn) | 12% |
| COc1ccc(/C=N/NC(=O)c2cc(C)oc2C)cc1OCc1ccccc1 | 7.58% |
| CN(CC1CCCO1)S(=O)(=O)c1ccc(C(=O)Nc2nnc(-c3ccccc3)o2)cc1 (stereo not drawn) | 16.4% |
| O=C(O)C(=O)O.O=[N+]([O-])c1cccc(CN2CCN(Cc3ccco3)CC2)c1 | -4.34% |
| Cc1nn(CC(=O)O)c(C)c1N | 3.42% |
| COc1ccc(/C=C/C(=O)NCC(=O)N/N=C/c2cc(Br)ccc2OC)cc1 | 7.98% |
| Cc1cnc(NC(=O)CSc2nc3ccccc3c(=O)[nH]2)s1 | -7.72% |
| CCCn1cc(SCC(=O)NCC2CCCO2)c2ccccc21 (stereo not drawn) | 4.17% |
| CCC(=O)Nc1nonc1-c1nc2ccccc2n1N(C(=O)CC)C(=O)CC | 11.4% |
| COc1ccccc1NC(=O)c1ccc(S(=O)(=O)N(C)c2ccccc2)cc1 | -3.47% |
| COCCCN1C(=O)c2ccc(C(=O)OCC(=O)N(CCC#N)c3cc(C)cc(C)c3)cc2C1=O | -20.5% |
| Cc1[nH]nc2c1C1(CCN(C(=O)OCc3ccccc3)CC1)C(C#N)=C(N)O2 | -29.8% |
| CCOC(=O)c1c(NC(=O)COc2ncnc3ccccc23)sc(C(C)=O)c1C | -5.43% |
| Cc1cc([N+](=O)[O-])cc(C)c1OCC(=O)N/N=C/c1ccc(OC(=O)c2ccccc2Br)cc1 | 4.23% |
| N#Cc1ccc(/C=N/N=C(N)N)cc1 | -23.6% |

| Compound | hERG current change (%, negative = inhibition) at 10uM |
| --- | --- |
| C=CCN1CCN(C(CCC)c2nnnn2Cc2ccco2)CC1 (stereo not drawn) | 10% |
| COc1ccc(N/N=C(\C=N\O)C(=O)c2ccc(OC)cc2)cc1 | 1.78% |
| Cc1cccc(NC(=O)Cn2c([N+](=O)[O-])cnc2C)c1C | 2.49% |
| Cc1cc2cc(C)c3nnc(SCC(=O)NCc4ccco4)n3c2cc1C | -5.73% |
| Cc1nn(CCc2nn[nH]n2)c2nc(-c3ccc(C4CCCCC4)cc3)cc(C(F)(F)F)c12 | 29.3% |
| CCc1ccc(CNc2ccc3c(c2)ncn3C(C)(C)C)cc1 | -36.1% |
| Cl.Oc1ccc(Cl)cc1CNCC1CCCCC1 | 3.14% |
| COC(=O)c1ccc(C2/C(=C(/O)c3ccc4c(c3)CC(C)O4)C(=O)C(=O)N2Cc2cccnc2)cc1 (stereo not drawn) | 8.97% |
| O=C(NCC(=O)N(c1cccnc1)C(C(=O)NC1CCCC1)c1ccco1)c1cccs1 (stereo not drawn) | 4.81% |
| COc1cc(/C=N/NC(=O)c2cc(C34CC5CC(CC(C5)C3)C4)[nH]n2)ccc1O | -26.6% |
| Cc1cccc(NC(=O)c2cccc(NC(=O)c3ccccc3)c2)n1 | -36.9% |
| Cc1cc(/C=C(\C#N)C(=O)O)c(C)n1CCC(C)C | 10.5% |
| c1c2c(cc3sc(N4CCOCC4)nc13)OCCO2 | -6.66% |
| Cc1ccccc1-n1c(-c2cccnc2)n[nH]c1=S | 18.1% |
| Cc1ccc([N+](=O)[O-])cc1Nc1nc(N2CCCC2)nc(N2CCCC2)n1 | 19.2% |
| COC(=O)c1noc(-c2ccc(C)cc2)n1 | -3.95% |
| O=C(CNC(=O)c1ccccc1F)OCC(=O)N1CCCc2ccccc21 | -7.61% |
| COc1ccc(S(=O)(=O)NC(CC(=O)N2CCC3(CC2)OCCO3)c2ccco2)cc1 (stereo not drawn) | 3.91% |
| COC[C@]12CN(C)C3C4[C@H](OC)[C@H]1C3([C@@H](OC)C[C@H]2O)[C@@H]1C[C@@]2(O)[C@H](OC(=O)c3ccccc3)[C@@H]1[C@]4(OC(C)=O)[C@@H](O)[C@@H]2OC | 8.52% |
| CC(=O)Nc1ccc(NC(=O)CCNC(=O)c2ccccc2Cl)cc1 | 20.9% |
| CCS(=O)(=O)N1CCC(C(=O)NCCCN2CCCCCC2)CC1 | -5.17% |
| Cc1cc(C)c(OCCCON2C(=O)CCC2=O)c(Br)c1 | -2.89% |
| c1ccc(CNn2nnnc2-c2ccccc2)cc1 | -0.0934% |
| COc1cc(C(=O)Nc2ccc(Br)cc2C(=O)c2ccccc2Cl)cc(OC)c1OC | 12.2% |
| CCN(CC)C(=O)Cn1cc(S(=O)(=O)CC(=O)Nc2cc(OC)ccc2OC)c2ccccc21 | -8.35% |
| CCOc1ccc2nc(NCCNC(=O)C(C)C)c(C)cc2c1 | -61% |
| COc1ccc(N2CCN(c3ncnc4c3nnn4Cc3ccccc3Cl)CC2)cc1 | 9.59% |
